The other results are listed elsewhere or left out. At the low end of the ranking the order means little.

This assay deals with T1, GST-Rok (full length) (UniProt O34857).
T1 sequence: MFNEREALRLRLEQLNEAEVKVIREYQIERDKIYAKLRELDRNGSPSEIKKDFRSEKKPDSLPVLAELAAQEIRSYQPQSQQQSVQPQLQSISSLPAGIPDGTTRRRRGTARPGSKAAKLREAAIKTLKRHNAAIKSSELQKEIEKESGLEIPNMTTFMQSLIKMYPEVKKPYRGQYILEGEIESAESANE
Description: protein binding microarray.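 Note: rank score from −0.5 (least bound) to 0.5 (best bound).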 The conditions noted are these: Rok is a gene silencer of Bacillus subtilis; high values mean tight binding; most listed sequences are background and not binding sites; double strand, one strand shown.
Consider ACCATCTC, for which the binding signal is -0.0707 E-score. ATATTGGC came in with a binding signal of -0.0597 E-score. For the sequence GACTTCTC, the binding signal was -0.00746 E-score. As for GCGATGCA, the binding signal is -0.0695 E-score. Under CACCACCA stands -0.236 E-score; under ATTCGGTA, 0.259 E-score.

CCCAGCGA registered a binding signal of -0.255 E-score. In turn, TTAATGAA yielded a binding signal of 0.0882 E-score. Consider CATTAAGA, for which the binding signal was -0.0463 E-score. CCATAGGG yielded a binding signal of -0.12 E-score. Sequence GGTTTGGA showed a binding signal of -0.121 E-score.

Consider CCGAATTA, for which the binding signal stood at 0.235 E-score.

Consider AGGACGAG, for which the binding signal was -0.434 E-score.

In turn, TAAGCTTA showed a binding signal of 0.102 E-score.

Take AATATATC: the binding signal was found to be 0.412 E-score.

CAAACGGG showed a binding signal of -0.192 E-score. With CCTCGCTA, the binding signal is -0.239 E-score. In the case of GCGAGGAC, the binding signal is -0.222 E-score. Sequence AACCCCCC displayed a binding signal of -0.326 E-score. Sequence AATGATCG gave a binding signal of 0.157 E-score. Under CCTATAGC stands 0.122 E-score; under ACACGTGA, 0.0365 E-score.

Turning to AATGGTAG, the binding signal worked out at 0.398 E-score. In turn, GGAGCCGA displayed a binding signal of -0.235 E-score. AATTTTTC registered a binding signal of 0.0424 E-score.

As to ACAATTCC, the binding signal was 0.242 E-score. In the case of GAACCGCA, the binding signal was determined as 0.0812 E-score.

The sequence CCCTGACG registered a binding signal of -0.349 E-score.

For GCTGTCCC, the binding signal is -0.204 E-score. CCCTCTCC registered a binding signal of -0.435 E-score. The sequence CGGCATCA displayed a binding signal of -0.0891 E-score. GTACGAAA yielded a binding signal of 0.244 E-score. For CAACGCTA, the binding signal was -0.0304 E-score. In the case of AGCAGACT, the binding signal was -0.102 E-score.

Sequence GCGCCCTA yielded a binding signal of -0.171 E-score.

As for CGTAGAGA, the binding signal was 0.0535 E-score. Under AGGGGACC stands -0.362 E-score; under GGAACGTA, 0.00178 E-score; under GCGGCAGC, -0.362 E-score. For the sequence GCTTGCGA, the binding signal is -0.0725 E-score. In the case of GAGCCCAA, the binding signal was -0.192 E-score. Sequence ACAGATAA showed a binding signal of 0.159 E-score. CAAGACGC registered a binding signal of -0.161 E-score. Under AATGGCGG stands -0.271 E-score; under AGTGATAA, 0.145 E-score. Sequence AAACGGGT yielded a binding signal of -0.091 E-score. Consider CAAACGCA, for which the binding signal was -0.236 E-score. The sequence GGTGGCAA showed a binding signal of -0.079 E-score.

As for GGATATGA, the binding signal came to 0.212 E-score. Consider AGTCCGCG, for which the binding signal is -0.243 E-score. For the sequence AGAATGTA, the binding signal came to 0.201 E-score.

CTCCTCAG displayed a binding signal of -0.391 E-score. Under ACCTTTGC stands -0.0699 E-score; under CCGCACTA, 0.123 E-score. The sequence TAAGAGCA returned a binding signal of -0.127 E-score. ACGCTCCA showed a binding signal of -0.214 E-score. Consider CGTCGACG, for which the binding signal is -0.281 E-score. Turning to ACGTTGGA, the binding signal is -0.0982 E-score. On to AAATGAGG, for which the binding signal was -0.0365 E-score. Under ACGTGGAA stands -0.14 E-score; under CTACGTAG, 0.282 E-score; under AGGGTGAC, -0.316 E-score. Sequence TCACCGAA returned a binding signal of -0.176 E-score. In the case of CGTCAAAC, the binding signal was -0.108 E-score. In the case of GCTGCTTA, the binding signal stood at 0.123 E-score.

CAGCTTGA: the binding signal was -0.172 E-score. Under GATGAGAA stands -0.0179 E-score; under CCAACCTC, -0.111 E-score; under ATGGCGGG, -0.261 E-score. On to AGATGTAA, for which the binding signal turned out to be 0.17 E-score. The sequence CTCATTCA had a binding signal of -0.172 E-score. As to ACACGTCG, the binding signal is -0.0892 E-score. The sequence ATATCTCC returned a binding signal of 0.174 E-score.

In turn, ATAAACTA yielded a binding signal of 0.361 E-score. Under ATCCGCTA stands 0.15 E-score; under GTGATCTA, 0.0742 E-score; under GGTGTCAA, 0.0133 E-score. ACAAGGAT came in with a binding signal of 0.0779 E-score. Take TGAACTCA: the binding signal is -0.00906 E-score. GTACTCAA came in with a binding signal of -0.0225 E-score. For CGGTCTTC, the binding signal was -0.286 E-score. GAGAAGGA showed a binding signal of -0.377 E-score.

In turn, AGGGTTTC registered a binding signal of -0.197 E-score. Under CACGTCAC stands -0.0514 E-score. As for GCAGGCGA, the binding signal was -0.152 E-score. In the case of AAACCATT, the binding signal was determined as 0.196 E-score. On to ATGGTCTG, for which the binding signal was -0.171 E-score. For TAGCCGAA, the binding signal came to 0.0718 E-score.

In turn, AGCTGGGG showed a binding signal of -0.188 E-score.

On to GCCCCGGA, for which the binding signal is -0.471 E-score. Take GTAGAGCA: the binding signal is -0.132 E-score.

ATAGGCAA registered a binding signal of 0.0174 E-score. Under GCAGGACA stands -0.094 E-score; under ATACACGA, 0.135 E-score.

The values above are taken from article PMC6212790.
